In all, about 39,000 compounds went through this assay and about 220 (0.56%) showed activity. The list shows a part of the results.
What follows are compounds tested on Escherichia coli K-12 BW25113 (assay: relative growth (OD600 normalised to plate interquartile mean) (fraction); higher = less growth inhibition, active = 0.2 or less). Conditions: 50 µM; LB; incubation time: overnight (16-24 h).
For `Cc1ccccc1S(=O)(=O)N(C)C[C@@H]1Oc2ccc(NC(=O)Nc3cc(Cl)cc(Cl)c3)cc2CC(=O)N([C@@H](C)CO)C[C@@H]1C`, the relative growth was inactive: 0.972. With `C[C@H](CO)N1C[C@H](C)[C@H](CN(C)Cc2ccc(Oc3ccccc3)cc2)Oc2c(NS(=O)(=O)c3ccc(F)cc3)cccc2C1=O` the relative growth was inactive: 1.02. `C[C@@H]1CCCCO[C@@H](CN(C)CC2CCCCC2)[C@@H](C)CN([C@H](C)CO)C(=O)c2cc(NC(=O)Nc3ccccc3)ccc2O1` was tested, and the relative growth was inactive: 1.01. `COc1ccccc1-c1ccc2c(c1)O[C@H](CN(C)C(=O)c1cccnc1)[C@H](C)CN([C@H](C)CO)S2(=O)=O` was tested, and the relative growth was inactive: 0.999. For `C[C@H](CO)N1C[C@H](C)[C@H](CN(C)C(=O)Nc2ccc(C(F)(F)F)cc2)OCCCC[C@H](C)Oc2ccc(NC(=O)C3CCCCC3)cc2C1=O`, the relative growth was inactive: 0.986. `CN(C)CCCNC(=O)C[C@@H]1CC[C@@H]2[C@H](COC[C@H](O)CN2C(=O)c2cc(Cl)cc(Cl)c2)O1` was tested, and the relative growth was inactive: 1.01. For `Cc1cc(C(=O)COC(=O)Cn2cnc3c2c(=O)n(C)c(=O)n3C)c(C)n1C`, the relative growth was inactive: 0.991. In the case of `Cc1noc(C)c1S(=O)(=O)Nc1ccc2c(c1)C(=O)N([C@@H](C)CO)C[C@@H](C)[C@@H](CN(C)Cc1ccc(C(F)(F)F)cc1)OCCCC[C@H](C)O2`, the relative growth is reported as inactive: 1.08. With `C[C@@H]1CCCCO[C@@H](CN(C)Cc2ccc(C(F)(F)F)cc2)[C@H](C)CN([C@@H](C)CO)C(=O)c2cc(NC(=O)c3ccccc3)ccc2O1` the relative growth was inactive: 0.965. `c1ccc(-c2ccnc(-c3cc(-c4ccccc4)ccn3)c2)cc1` was tested, and the relative growth was inactive: 0.99. `C[C@@H]1CN([C@@H](C)CO)C(=O)c2cc(NC(=O)C3CCCCC3)ccc2O[C@@H](C)CCCCO[C@@H]1CN(C)Cc1ccncc1` was tested, and the relative growth was inactive: 1.01. In the case of `N#C/C(=C\c1ccc(O)c(O)c1)C(N)=O`, the relative growth is reported as inactive: 0.982. `C[C@H](CO)N1C[C@H](C)[C@H](CN(C)C(=O)Nc2ccc3c(c2)OCCO3)OCc2cnnn2CCCC1=O` was tested, and the relative growth was inactive: 1.01. `CCOC(=O)C1=C(C)N[C@@]2(O)C[C@@H]1[C@H]1CO[C@@H]2O1` was tested, and the relative growth was inactive: 0.988. For `C[C@H](CO)N1C[C@H](C)[C@H](CN(C)S(C)(=O)=O)Oc2ccc(NC(=O)Cc3ccccc3)cc2CC1=O`, the relative growth was inactive: 1. With `COc1ccc(CN(C)C[C@@H]2Oc3ccc(NS(=O)(=O)c4c(C)noc4C)cc3C(=O)N([C@H](C)CO)C[C@H]2C)cc1` the relative growth was inactive: 0.993. `COc1cccc(S(=O)(=O)Nc2ccc3c(c2)OC[C@@H](C)N(C(=O)Cc2cccnc2)C[C@H](C)[C@H](OC)CN(C)C3=O)c1` was tested, and the relative growth was inactive: 1.02. For `CN(C)CCN1CCO[C@H]2CN(C(=O)N(C)C)C[C@@H]21`, the relative growth was inactive: 1.02. `C[C@@H]1CN([C@@H](C)CO)C(=O)c2cc(NC(=O)Cc3ccccc3)ccc2O[C@H]1CN(C)S(=O)(=O)c1ccccc1` was tested, and the relative growth was inactive: 0.99. For `COc1ccccc1-c1cccc(-c2nc(C(=O)N3CCCCC3)cc3c2[C@H](CCO)N([S@@](=O)C(C)(C)C)C3)c1`, the relative growth was inactive: 1.02. In the case of `C[C@@H]1CN([C@H](C)CO)C(=O)c2cccc(NC(=O)CCCCCC(=O)Nc3ccccc3N)c2O[C@@H]1CN(C)S(C)(=O)=O`, the relative growth is reported as inactive: 0.989. With `C[C@@H]1CCCCO[C@H](CN(C)C(=O)CCC(F)(F)F)[C@@H](C)CN([C@H](C)CO)C(=O)c2cc(NC(=O)C3CCCCC3)ccc2O1` the relative growth was inactive: 0.979. With `CC(C)NC(=O)Nc1ccc2c(c1)CC(=O)N([C@@H](C)CO)C[C@H](C)[C@@H](CN(C)Cc1ccc(C(=O)O)cc1)O2` the relative growth was inactive: 0.999. `C[C@@H]1CCCCO[C@@H](CN(C)S(=O)(=O)c2ccccc2)[C@H](C)CN([C@H](C)CO)C(=O)c2cc(NS(C)(=O)=O)ccc2O1` was tested, and the relative growth was inactive: 0.989. For `COc1ccc(S(=O)(=O)Nc2ccc3c(c2)C(=O)N([C@H](C)CO)C[C@H](C)[C@@H](CN(C)S(=O)(=O)c2cn(C)cn2)O3)cc1`, the relative growth was inactive: 1.01. With `COc1ccc(S(=O)(=O)N(C)C[C@@H]2Oc3ccc(NC(=O)Cc4ccccc4)cc3CC(=O)N([C@@H](C)CO)C[C@@H]2C)cc1` the relative growth was inactive: 1.04. For `C[C@@H](O)C#Cc1cnc2c(c1)C(=O)N([C@@H](C)CO)C[C@H](C)[C@@H](CN(C)C(=O)Nc1ccc(C(F)(F)F)cc1)O2`, the relative growth was inactive: 0.977. With `C[C@@H]1CN([C@@H](C)CO)C(=O)c2cc(NS(=O)(=O)c3ccccc3)ccc2O[C@@H](C)CCCCO[C@@H]1CN(C)C(=O)Nc1cccc2ccccc12` the relative growth was inactive: 1.03. `C[C@@H]1CN([C@H](C)CO)C(=O)c2cc(NC(=O)Nc3ccc(F)cc3)ccc2O[C@@H](C)CCCCO[C@@H]1CN(C)C(=O)C1CCCCC1` was tested, and the relative growth was inactive: 1.01. For `C[C@@H]1CCCCO[C@H](CN(C)C(=O)Nc2ccc(F)cc2)[C@H](C)CN([C@H](C)CO)C(=O)c2cc(NS(=O)(=O)c3ccc(F)cc3)ccc2O1`, the relative growth was inactive: 1.03. For `c1cc(CNCCN2CCOCC2)ccn1`, the relative growth was inactive: 0.993. In the case of `COc1ccc2c3c(n(c2c1)C)[C@@H](CO)N(C[C@]13CN(Cc2cccc(c2)F)C1)C(=O)C1CCOCC1`, the relative growth is reported as inactive: 1.02. In the case of `C[C@H](CO)N1C[C@H](C)[C@@H](CN(C)S(=O)(=O)c2ccc(Cl)cc2)Oc2c(NS(=O)(=O)c3cn(C)cn3)cccc2C1=O`, the relative growth is reported as inactive: 1. With `Cc1ccc(S(=O)(=O)N(C)C[C@@H]2Oc3c(NC(=O)c4ccncc4)cccc3C(=O)N([C@H](C)CO)C[C@H]2C)cc1` the relative growth was inactive: 0.983. With `C[C@H](CO)N1C[C@H](C)[C@@H](CN(C)Cc2ccc(C(=O)Nc3ccccc3N)cc2)Oc2c(NC(=O)Nc3ccc(F)cc3)cccc2C1=O` the relative growth was inactive: 1.01. In the case of `CCS(=O)(=O)Nc1ccc2c(c1)C(=O)N(C)C[C@H](OC)[C@@H](C)CN(Cc1ccccn1)[C@H](C)CO2`, the relative growth is reported as inactive: 1.04. With `Cc1cc(C)nc(N2CC(=O)NC2=N)n1` the relative growth was inactive: 0.965. `C[C@@H]1CN([C@H](C)CO)C(=O)Cc2cc(NC(=O)CCN3CCOCC3)ccc2O[C@H]1CN(C)S(=O)(=O)c1ccc(F)cc1` was tested, and the relative growth was inactive: 1.

Source: the supplement of paper PMC9446081
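Further: static incubation at 37 °C against the wild-type strain, values averaged over two biological replicates.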
